# Measured values from the supplement of paper PMC8728848.
# Some of the results follow.
# B1: MGL6A (Homo sapiens) (protein)
# chain: MTRTYENFQYLENKVKVQGFKNGPLPLQSLLQRLCSGPCHLLLSLGLGLLLLVIICVVGFQNSKFQRDLVTLRTDFSNFTSNTVAEIQALTSQGSSLEETIASLKAEVEGFKQERQAVHSEMLLRVQQLVQDLKKLTCQVATLNNNGEEASTEGTCCPVNWVEHQDSCYWFSHSGMSWAEAEKYCQLKNAHLVVINSREEQNFVQKYLGSAYTWMGLSDPEGAWKWVDGTDYATGFQNWKPGQPDDWQGHGLGGGEDCAHFTPDGRWNDDVCQRPYHWVCEAGLGQTSQESH
# Columns and labels:
# Assay in all cases: glycan array binding signal (z-score within array); higher = stronger binding
# Settings in all cases: glycan notation: IUPAC condensed, linker removed; mutation: H262T
# [1] = target: GlcNAc(b1-3)Gal(b1-4)GlcNAc(b1-3)Gal(b1-4)GlcNAc(b1-3)Gal(b1-4)GlcNAc(b1-3)Gal(b1-4)GlcNAc(b1-2)[GlcNAc(b1-3)Gal(b1-4)GlcNAc(b1-3)Gal(b1-4)GlcNAc(b1-3)Gal(b1-4)GlcNAc(b1-3)Gal(b1-4)GlcNAc(b1-6)]Man(a1-6)[GlcNAc(b1-3)Gal(b1-4)GlcNAc(b1-3)Gal(b1-4)GlcNAc(b1-3)Gal(b1-4)GlcNAc(b1-3)Gal(b1-4)GlcNAc(b1-2)Man(a1-3)]Man(b1-4)GlcNAc(b1-4)[Fuc(a1-6)]GlcNAc
# Procedure, shortened: (§1)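 Glycan array data came from 3228 arrays in the Consortium for Functional Glycomics database, and only arrays with an available protein sequence were kept. Glycan names were put into IUPAC-condensed notation, and columns mapping to the same glycan were averaged. The binding signal is a within-array Z-score, averaged across arrays of one protein sequence run at different concentrations or buffers and across linkers. A negative Z-score can be read as non-binding.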
# [2] = target: GlcNAc(b1-3)Gal(b1-4)GlcNAc(b1-3)Gal(b1-4)GlcNAc(b1-3)GalNAc
# Procedure, shortened: as §1
# [3] = target: GlcNAc(b1-3)Gal(b1-4)GlcNAc(b1-3)GalNAc
# Procedure, shortened: as §1
# [4] = target: GlcNAc(b1-3)Gal(b1-4)GlcNAc(b1-3)[GlcNAc(b1-3)Gal(b1-4)GlcNAc(b1-3)]GalNAc
# Procedure, shortened: as §1
# [5] = target: GlcNAc(b1-3)Gal(b1-4)GlcNAc(b1-6)[Gal(b1-3)]GalNAc
# Procedure, shortened: as §1
# [6] = target: GlcNAc(b1-3)Gal(b1-4)GlcNAc(b1-6)[GlcNAc(b1-3)Gal(b1-3)]GalNAc
# Procedure, shortened: as §1
# [7] = target: GlcNAc(b1-3)Gal(b1-4)GlcNAc(b1-6)[GlcNAc(b1-3)]Gal(b1-4)GlcNAc
# Procedure, shortened: as §1
# GlcNAc(b1-3)GalNAc = target: GlcNAc(b1-3)GalNAc
# Procedure, shortened: as §1
# GlcNAc(b1-3)Man = target: GlcNAc(b1-3)Man
# Procedure, shortened: as §1
# [8] = target: GlcNAc(b1-3)[GlcNAc(b1-4)][GlcNAc(b1-6)]GlcNAc
# Procedure, shortened: as §1
# [9] = target: GlcNAc(b1-3)[GlcNAc(b1-6)]Gal(b1-4)GlcNAc
# Procedure, shortened: as §1
# [10] = target: GlcNAc(b1-3)[GlcNAc(b1-6)]GalNAc
# Procedure, shortened: as §1
# [11] = target: GlcNAc(b1-4)Gal(b1-4)GlcNAc
# Procedure, shortened: as §1
# GlcNAc(b1-4)GlcNAc = target: GlcNAc(b1-4)GlcNAc
# Procedure, shortened: as §1
# [12] = target: GlcNAc(b1-4)GlcNAc(b1-4)GlcNAc
# Procedure, shortened: as §1
# [13] = target: GlcNAc(b1-4)GlcNAc(b1-4)GlcNAc(b1-4)GlcNAc(b1-4)GlcNAc
# Procedure, shortened: as §1
# [14] = target: GlcNAc(b1-4)GlcNAc(b1-4)GlcNAc(b1-4)GlcNAc(b1-4)GlcNAc(b1-4)GlcNAc
# Procedure, shortened: as §1
# [15] = target: GlcNAc(b1-4)[GlcNAc(b1-6)]GalNAc
# Procedure, shortened: as §1
# [16] = target: GlcNAc(b1-6)Gal(b1-4)GlcNAc
# Procedure, shortened: as §1
# GlcNAc(b1-6)GalNAc = target: GlcNAc(b1-6)GalNAc
# Procedure, shortened: as §1
# [17] = target: GlcNAc6S(b1-3)Gal(b1-4)GlcNAc
# Procedure, shortened: as §1
# Kdn(a2-3)Gal(b1-3)GalNAc = target: Kdn(a2-3)Gal(b1-3)GalNAc
# Procedure, shortened: as §1
# Kdn(a2-3)Gal(b1-3)GlcNAc = target: Kdn(a2-3)Gal(b1-3)GlcNAc
# Procedure, shortened: as §1
# Kdn(a2-3)Gal(b1-4)Glc = target: Kdn(a2-3)Gal(b1-4)Glc
# Procedure, shortened: as §1
# Kdn(a2-3)Gal(b1-4)GlcNAc = target: Kdn(a2-3)Gal(b1-4)GlcNAc
# Procedure, shortened: as §1
# [18] = target: Kdn(a2-3)Gal(b1-4)[Fuc(a1-3)]GlcNAc
# Procedure, shortened: as §1
# Kdn(a2-6)Gal(b1-4)GlcNAc = target: Kdn(a2-6)Gal(b1-4)GlcNAc
# Procedure, shortened: as §1
# [19] = target: Man(a1-2)Man(a1-2)Man(a1-3)Man
# Procedure, shortened: as §1
# [20] = target: Man(a1-2)Man(a1-2)Man(a1-6)[Man(a1-3)]Man
# Procedure, shortened: as §1
# Man(a1-2)Man(a1-3)Man = target: Man(a1-2)Man(a1-3)Man
# Procedure, shortened: as §1
# [21] = target: Man(a1-2)Man(a1-3)[Man(a1-2)Man(a1-6)]Man
# Procedure, shortened: as §1
# [22] = target: Man(a1-2)Man(a1-3)[Man(a1-2)Man(a1-6)]Man(a1-6)[Man(a1-2)Man(a1-2)Man(a1-3)]Man
# Procedure, shortened: as §1
# [23] = target: Man(a1-2)Man(a1-3)[Man(a1-2)Man(a1-6)]Man(a1-6)[Man(a1-2)Man(a1-2)Man(a1-3)]Man(b1-4)GlcNAc(b1-4)GlcNAc
# Procedure, shortened: as §1
# [24] = target: Man(a1-2)Man(a1-3)[Man(a1-6)]Man(a1-6)[Man(a1-2)Man(a1-3)]Man(b1-4)GlcNAc(b1-4)GlcNAc
# Procedure, shortened: as §1
# [25] = target: Man(a1-2)Man(a1-6)[Man(a1-3)]Man(a1-6)[Man(a1-2)Man(a1-2)Man(a1-3)]Man
# Procedure, shortened: as §1
# [26] = target: Man(a1-2)Man(a1-6)[Man(a1-3)]Man(a1-6)[Man(a1-2)Man(a1-2)Man(a1-3)]Man(b1-4)GlcNAc(b1-4)GlcNAc
# Procedure, shortened: as §1
# Man(a1-3)[Man(a1-6)]Man = target: Man(a1-3)[Man(a1-6)]Man
# Procedure, shortened: as §1
binder,measurement,setting,value
B1,glycan array binding signal (z-score),[1],-0.153
same,glycan array binding signal (z-score),[2],-0.166
same,glycan array binding signal (z-score),[3],-0.169
same,glycan array binding signal (z-score),[4],-0.176
same,glycan array binding signal (z-score),[5],-0.176
same,glycan array binding signal (z-score),[6],-0.174
same,glycan array binding signal (z-score),[7],-0.177
same,glycan array binding signal (z-score),GlcNAc(b1-3)GalNAc,-0.151
same,glycan array binding signal (z-score),GlcNAc(b1-3)Man,-0.177
same,glycan array binding signal (z-score),[8],-0.175
same,glycan array binding signal (z-score),[9],-0.173
same,glycan array binding signal (z-score),[10],-0.174
same,glycan array binding signal (z-score),[11],-0.171
same,glycan array binding signal (z-score),GlcNAc(b1-4)GlcNAc,-0.174
same,glycan array binding signal (z-score),[12],-0.175
same,glycan array binding signal (z-score),[13],-0.174
same,glycan array binding signal (z-score),[14],-0.175
same,glycan array binding signal (z-score),[15],-0.174
same,glycan array binding signal (z-score),[16],-0.173
same,glycan array binding signal (z-score),GlcNAc(b1-6)GalNAc,5.17
same,glycan array binding signal (z-score),[17],-0.172
same,glycan array binding signal (z-score),Kdn(a2-3)Gal(b1-3)GalNAc,-0.176
same,glycan array binding signal (z-score),Kdn(a2-3)Gal(b1-3)GlcNAc,-0.173
same,glycan array binding signal (z-score),Kdn(a2-3)Gal(b1-4)Glc,-0.173
same,glycan array binding signal (z-score),Kdn(a2-3)Gal(b1-4)GlcNAc,-0.161
same,glycan array binding signal (z-score),[18],-0.174
same,glycan array binding signal (z-score),Kdn(a2-6)Gal(b1-4)GlcNAc,-0.175
same,glycan array binding signal (z-score),[19],-0.176
same,glycan array binding signal (z-score),[20],-0.177
same,glycan array binding signal (z-score),Man(a1-2)Man(a1-3)Man,-0.173
same,glycan array binding signal (z-score),[21],-0.175
same,glycan array binding signal (z-score),[22],-0.174
same,glycan array binding signal (z-score),[23],-0.182
same,glycan array binding signal (z-score),[24],-0.173
same,glycan array binding signal (z-score),[25],-0.176
same,glycan array binding signal (z-score),[26],-0.179
same,glycan array binding signal (z-score),Man(a1-3)[Man(a1-6)]Man,-0.173
